Assay results published in the supplement of paper PMC10126150.
Sequences with one replicate were seen in a single cluster, so their values are uncertain.

Test system: ATP
Assay: switch fluorescence ratio, 500 uM ATP over buffer (Cy3 cluster intensity, sum of 5 cycles each) (fold (ratio)); higher = stronger signal-on switching upon ATP binding; sequences stand for … in TCGTCGGCAGCGTCAGATGTGTATAAGAGACAGTTTTTTTTTTTTTTTTTTTTTTTTT…TC
Conditions: aptamer strand: ATP DNA aptamer (quencher-CACCTGGGGGAGTATTGCGGAGGAAGG + anchor), 100 nM annealed; ATP concentration: 500 uM; one replicate
Method in brief: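 The fluorescence ratio divides summed target-cycle Cy3 intensity by summed buffer-cycle Cy3 intensity for each cluster and is averaged per switch-domain sequence. Cy3-labelled switching-strand clusters on a modified Illumina MiSeq flow-cell were annealed to 100 nM quencher-labelled ATP aptamer, then imaged in selection buffer and again after 15 min with 500 uM ATP at 22 °C. Five such cycles were run, with NaOH stripping and re-annealing between them, and clusters outside 100-1000 RFU were excluded.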
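Note: ATP exposure 15 min at 22 °C before imaging.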

Sequence	switch fluorescence ratio
AGTAAGTAAA	1.04
TTCGAGGAGC	0.966
CGTCAGAAAT	1.02
ACACGGAGTC	0.995
GCCGCATA	1.55
AACGATTCAG	0.983
AGTATGCCCT	1.01
TGTATGCATG	1.01
GCGGTAGACC	1.02
ACAGCTAGTT	1.05
GGTCCCTGTG	1.01
ATATAGGCGC	1
GTTTCACTAT	1.04
GGCGAAGTGA	1.01
CGCGAGTCGC	1.03
TACACCGGTT	1.05
ACCTTTATT	1.04
CAAACGAC	1.16
TGGGGGTCC	0.974
TAATACCACG	1.06
GCACTTAAAT	0.994
ATCTAGGGGC	1.07
ATTTATTAGC	1.03
TGAACGCACA	2.15
GGGGCGCTTG	1.01
TTTTCACCAT	1

Sequence	switch fluorescence ratio
AATATAAGGG	1.04
CTGAGGGTT	1.01
TGAAGGGATG	0.955
GCAGTGGAAC	1.06
CAGAAGGCTT	0.963
TGTAGTTGGC	1.02
AACTTTTCCG	1.01
CTGTGTAGTT	1
TTGGCGCGA	1.11
TCGTTGGAGG	1.01
CGTTGAGGGC	1.07
CGGTAGCGGT	1.04
GGCGTCGTCT	1.04
GTCTCTAAAC	0.957
GGGTTCAATA	1.02
ACTGGTCCTG	0.948
GTTCTGCTAA	1.02
AGATAGTAAT	1.06
TAGACCACC	1.15
GAGTCAGGGC	1.01
GGGTAGTATA	0.975
GGGGCTAAGG	1
TTACAGGTGT	3.26
TTCGAATAGA	1.02
GTGGGACCGG	0.999
GGTGTCTCGC	0.987

Sequence	switch fluorescence ratio
ACTACTTCGA	1.02
CTATGAGTC	0.993
CCGCATGTCA	3.83
GAGTTTCTCG	1.01
TAAGGCATC	0.994
GTTGGGTTGT	1.03
TTCTACGTGT	0.971
CTTAGTCGCG	0.98
AGTCTTTGGT	1.01
CAAATGGGTA	0.982
GTGAGGCAGG	0.983
GAGCAGGCGT	0.961
TAGGACTAGG	0.964
AAGATGCTCG	1
CAGAAGGTTG	0.97
TTCCACTTCT	1.03
TGGATCAGAC	1.07
TTAGGCAGCG	0.982
AGGATAGGTA	1.04
AGGCCGTATG	0.955
ACGAAGCGGC	5.84
CGGATATGA	0.986
GGTTCTGATT	0.949
CGGTGGGTTT	0.991
CACGTACTCT	1.54
TAACGGAGAT	1.01

Sequence	switch fluorescence ratio
TCACGTAATT	1.37
AGTGGGCCAC	0.977
GTCGGTCCTA	1.01
GCATTCGTAG	0.991
TACGGAGGGG	1.01
GGTAAAGTCG	1.01
TTGGCTGACC	1.05
CGGGTGTCGT	1.02
TGAGGGGAT	0.987
TCTTTGGGTA	0.99
TACATAGGC	1.03
GCATATCATA	0.978
TTAAAGTATT	1.05
TCTGATCATG	0.991
TTGCCCTGTT	1.02
GGGTATCAAC	0.968
CCGAAGTTTA	1.93
GCGTGCTCTT	0.978
CGGGATTTGC	0.991
GAAGCTTTTG	1.03
GAACTAGTGG	1.02
GTGGACCGGG	1.01
CGGTATACCT	1.06
ATCTATGGGA	0.962
ATGAGTGACT	0.972
TCTAACAACT	0.991

Sequence	switch fluorescence ratio
CTTGAATGGA	0.984
ATCGTTAGGT	0.994
ATGTGAAGTG	1.02
TCATTTAATT	1.01
TCCAGAGCAA	0.97
GGTTATCAAG	1.01
GCCTACATAA	1.05
AGACTTTAAG	0.974
GTCCCCCAT	1.03
TCCTGAAGTT	1.1
GCCGACGTGC	1.01
TAAAGAAATT	1.22
GAGAGCAGCG	1.13
CCAACAATCC	1.55
GGTCAACCGG	0.986
AGGCTACACA	1.01
CATGCGGGAC	1.65
ACACCCAGTT	1.26
CACACGCC	1.08
TTGCGATCCC	1.08
AGGTCTATAT	0.972
AAAACGACGA	1.2
ACCACCACGG	1.16
CTGTATCGAT	0.995
GTGCTAAACG	0.978
GGTGGACTGG	0.966

Sequence	switch fluorescence ratio
CCTGAGGGAG	1.19
TCTTGTTGTT	0.961
CTTTAGGATT	0.978
TGAAGTACGG	1.27
GAGAACAAC	0.99
TTCTGGAGC	0.999
TTGATAAACC	1.06
TCTGGCGCTC	1.16
TTTAGGCCTT	1
CAGGCGGCTG	0.972
GTTCGTTGAG	1
GTTGCTATTG	1.01
AACGACAACA	1.19
TAGGGCGGCC	1.04
CTAAGTCTCG	1
AACGAATTCT	0.999
AGTGTATCGC	0.979
CGAGATACTA	1.11
ACGTTGGATG	1.01
CGGTTTGACC	1
TATCAATGCA	1.04
CGAGATGGGA	0.997
AAGGCAAGG	0.986
TATATGTGGA	1
TTGCCGGCCT	1.06
CGTCAGGGGT	1.12

Sequence	switch fluorescence ratio
CTGATGTAGA	0.997
GCCCGAAACT	0.996
TAGTGATGGA	1.01
ATTAAACTAT	0.997
AACGGAGGTC	1
TTGCAAGGCA	1.01
GGCCGCTAAG	1.03
TAATGTTCAG	0.999
TGAAGTAGAA	0.973
CCAGATTTAT	1.04
TACCGGGTGC	1.05
GACATATGAG	1.04
AGGGTACATT	1.07
GAAGGGAGCT	1.02
TGATTGCGGC	1.04
ATATCCTCTG	1.08
ACCTGATGTA	0.962
GTACTGGGCA	0.968
CAGACCCGAG	0.972
AGCGAATAGG	1.07
CCGCGGGGCA	1.38
AATGTGTGTG	0.974
CGTACCAGAG	1.02
CCCAGGTCTT	1.86
CTGAAAATTA	0.969
GCTGGTATAC	1.33

Sequence	switch fluorescence ratio
TCAAAATTCA	1.11
GTTGCAGAAA	1.02
GATACACGG	0.978
GTTCTTTGGC	0.985
CTCACTTGTG	1
CTGTAGAACC	1.05
AGCCAGGTCA	1.06
TCGATCGAG	0.941
CGGCACGTAG	1.07
TGAGCGTCTG	1.02
ACGGACGCGC	1.29
GACTCGGTGA	1.03
ATTAGCCCTT	1.03
CTTGCTGCTA	1.06
TAACCCAGCG	1.32
CTCTGGCGCT	1.06
ACGTTTAGCG	1
TACTCAGCGG	1.5
TTCGACTTTG	0.968
